In patent publication US11000038B2, “Pyridone compounds and agricultural and horticultural fungicides containing the same as active ingredients” (priority 2017, dated 2021):

How the values were obtained:
[1] = tested on: cabbage Alternaria sooty spot fungi (Alternaia brassicicola); experiment: Test Example C: cabbage Alternaria sooty spot, spray treatment of cabbage plants; assay type: in vivo; settings: cabbage Alternaria sooty spot, spray treatment of cabbage plants
From the text: [Test Example C] Cabbage Alternaria Sooty Spot
Test plants (cabbage variety: Shikidori) were cultivated until the cotyledons extended after the sowing of seeds.
<Control Value> Control value=100{1−(n/3)}

[2] = tested on: wheat brown rust fungi (Puccinia recondita); experiment: Test Example E: wheat brown rust, spray treatment of wheat plants; assay type: in vivo; settings: wheat brown rust, spray treatment of wheat plants
[3] = tested on: gray mold fungi (Botrytis cinerea); experiment: Test Example B: tomato gray mold, spray treatment of tomato plants; settings: tomato gray mold, spray treatment of tomato plants
[4] = tested on: grape downy mildew fungus (Plasmopara viticola); experiment: Test Example G: grape downy mildew, spray treatment of grape plants; settings: grape downy mildew, 250 ppm spray (2.5 ml/pot), 7 to 10 days after inoculation
[5] = tested on: barley powdery mildew fungi (Blumeria graminis f. sp. hordei); experiment: Test Example D: barley powdery mildew, spray treatment of barley plants; settings: barley powdery mildew, spray treatment of barley plants

| Structure (SMILES) | Test C control value [1] | Test E control value [2] | Test B control value [3] | Test G control value [4] | Test D control value [5] |
| --- | --- | --- | --- | --- | --- |
| COCOc1ccc(C)c(-n2cc(Br)c(=O)c(Cl)c2-c2c(F)cc(F)cc2F)c1 [Compound 285, 5-bromo-3-chloro-1-(5-(methoxymethoxy)-2-methylphenyl)-2-(2,4,6-trifluorophenyl)pyridin-4(1H)-one] | H (H shows the control value of more than 50%) | H (H shows the control value of more than 50%) | H (H shows the control value of more than 50%) | H (H shows the control value of more than 50%) | L (L shows the control value of 50% or less) |
| COCOc1ccc(C)c(-n2cc(Br)c(=O)c(Cl)c2-c2c(F)cc(OC)cc2F)c1 [Compound 286, 5-bromo-3-chloro-2-(2,6-difluoro-4-methoxyphenyl)-1-(5-(methoxymethoxy)-2-methylphenyl)pyridin-4(1H)-one] | H (H shows the control value of more than 50%) | H (H shows the control value of more than 50%) | H (H shows the control value of more than 50%) | H (H shows the control value of more than 50%) | H (H shows the control value of more than 50%) |
| Cc1ccccc1-n1cc(C)c(=O)c(C)c1-c1ccoc1 [Compound 287] | L (L shows the control value of 50% or less) | H (H shows the control value of more than 50%) | L (L shows the control value of 50% or less) | H (H shows the control value of more than 50%) | L (L shows the control value of 50% or less) |
| Cc1cccc(F)c1-n1cc(Br)c(=O)c(Br)c1-c1c(F)cc(F)cc1F [Compound 288] | H (H shows the control value of more than 50%) | H (H shows the control value of more than 50%) | H (H shows the control value of more than 50%) | L (L shows the control value of 50% or less) | L (L shows the control value of 50% or less) |
| Cc1cccc(F)c1-n1cc(Cl)c(=O)c(Br)c1-c1c(F)cc(F)cc1F [Compound 290] | H (H shows the control value of more than 50%) | H (H shows the control value of more than 50%) | H (H shows the control value of more than 50%) | L (L shows the control value of 50% or less) | L (L shows the control value of 50% or less) |
| Cc1cccc(F)c1-n1cc(Cl)c(=O)c(Cl)c1-c1c(F)cc(F)cc1F [Compound 291] | H (H shows the control value of more than 50%) | H (H shows the control value of more than 50%) | H (H shows the control value of more than 50%) | L (L shows the control value of 50% or less) | L (L shows the control value of 50% or less) |
| CCOCOc1ccc(C)c(-n2cc(Br)c(=O)c(Cl)c2-c2c(F)cc(F)cc2F)c1 [Compound 292] | H (H shows the control value of more than 50%) | H (H shows the control value of more than 50%) | H (H shows the control value of more than 50%) | L (L shows the control value of 50% or less) | L (L shows the control value of 50% or less) |
| Cc1ccc(O)cc1-n1cc(Cl)c(=O)c(Cl)c1-c1c(F)cc(F)cc1F [Compound 293] | H (H shows the control value of more than 50%) | H (H shows the control value of more than 50%) | H (H shows the control value of more than 50%) | L (L shows the control value of 50% or less) | L (L shows the control value of 50% or less) |
| COc1cc(F)c(-c2c(Cl)c(=O)c(Cl)cn2-c2cc(OC)ccc2C)c(F)c1 [Compound 294] | H (H shows the control value of more than 50%) | H (H shows the control value of more than 50%) | H (H shows the control value of more than 50%) | L (L shows the control value of 50% or less) | H (H shows the control value of more than 50%) |
| COCCOc1ccc(C)c(-n2cc(Cl)c(=O)c(Cl)c2-c2c(F)cc(OC)cc2F)c1 [Compound 296] | H (H shows the control value of more than 50%) | H (H shows the control value of more than 50%) | H (H shows the control value of more than 50%) | L (L shows the control value of 50% or less) | L (L shows the control value of 50% or less) |
| Cc1ccc(OCC#N)cc1-n1cc(Cl)c(=O)c(Cl)c1-c1c(F)cc(F)cc1F [Compound 297] | H (H shows the control value of more than 50%) | H (H shows the control value of more than 50%) | H (H shows the control value of more than 50%) | L (L shows the control value of 50% or less) | H (H shows the control value of more than 50%) |
| COCOc1ccc(C)c(-n2cc(Cl)c(=O)c(Cl)c2-c2c(F)cc(F)cc2F)c1 [Compound 298] | H (H shows the control value of more than 50%) | H (H shows the control value of more than 50%) | H (H shows the control value of more than 50%) | H (H shows the control value of more than 50%) | H (H shows the control value of more than 50%) |
| COCOc1ccc(C)c(-n2cc(Cl)c(=O)c(Cl)c2-c2c(F)cc(OC)cc2F)c1 [Compound 299] | H (H shows the control value of more than 50%) | H (H shows the control value of more than 50%) | H (H shows the control value of more than 50%) | H (H shows the control value of more than 50%) | H (H shows the control value of more than 50%) |
| Cc1cccc(C)c1-n1cc(Br)c(=O)c(Br)c1-c1c(F)cc(F)cc1F [Compound 301] | H (H shows the control value of more than 50%) | H (H shows the control value of more than 50%) | L (L shows the control value of 50% or less) | H (H shows the control value of more than 50%) | L (L shows the control value of 50% or less) |
| Cc1cccc(C)c1-n1cc(Br)c(=O)c(Cl)c1-c1c(F)cc(F)cc1F [Compound 302] | H (H shows the control value of more than 50%) | H (H shows the control value of more than 50%) | H (H shows the control value of more than 50%) | L (L shows the control value of 50% or less) | L (L shows the control value of 50% or less) |
| CCOCOc1ccc(C)c(-n2cc(Cl)c(=O)c(Cl)c2-c2c(F)cc(F)cc2F)c1 [Compound 303] | H (H shows the control value of more than 50%) | H (H shows the control value of more than 50%) | H (H shows the control value of more than 50%) | L (L shows the control value of 50% or less) | L (L shows the control value of 50% or less) |
| CCOCOc1ccc(C)c(-n2cc(Cl)c(=O)c(Cl)c2-c2c(F)cc(OC)cc2F)c1 [Compound 304] | H (H shows the control value of more than 50%) | H (H shows the control value of more than 50%) | H (H shows the control value of more than 50%) | H (H shows the control value of more than 50%) | H (H shows the control value of more than 50%) |
| Cc1cccc(C)c1-n1cc(Cl)c(=O)c(Cl)c1-c1c(F)cc(F)cc1F [Compound 305] | L (L shows the control value of 50% or less) | L (L shows the control value of 50% or less) | H (H shows the control value of more than 50%) | L (L shows the control value of 50% or less) | L (L shows the control value of 50% or less) |
| Cc1cccc(C)c1-n1cc(Cl)c(=O)c(Br)c1-c1c(F)cc(F)cc1F [Compound 306] | L (L shows the control value of 50% or less) | H (H shows the control value of more than 50%) | L (L shows the control value of 50% or less) | L (L shows the control value of 50% or less) | L (L shows the control value of 50% or less) |
| Cc1cccc(Cl)c1-n1cc(Br)c(=O)c(Cl)c1-c1c(F)cc(F)cc1F [Compound 307] | L (L shows the control value of 50% or less) | H (H shows the control value of more than 50%) | H (H shows the control value of more than 50%) | L (L shows the control value of 50% or less) | L (L shows the control value of 50% or less) |
| Cc1cccc(Cl)c1-n1cc(Br)c(=O)c(Br)c1-c1c(F)cc(F)cc1F [Compound 308] | L (L shows the control value of 50% or less) | H (H shows the control value of more than 50%) | H (H shows the control value of more than 50%) | L (L shows the control value of 50% or less) | L (L shows the control value of 50% or less) |
